pIC50: −log10 of the molar value. Some results were stated once for a whole list of compounds, not compound by compound.
Each molecule was assayed against T1, recombinant BRD4 FL bromodomain (Homo sapiens, UniProt O60885) (assay: BRD4 FL TR-FRET displacement assay). Details: dose-response, read-out: IC50 (group A, B, C).
T1 construct: fused on or other part: 6xHis tag, inferred from detection with Mab ANTI 6HIS-XL665
Type: binding
Procedure: The potency of compounds to inhibit BRD4 FL enzyme was tested in a TR-FRET displacement assay using recombinant BRD4 FL bromodomain obtained In-house. The assay buffer was 50 mM HEPES (pH 7.5), 50 mM NaCl, 500 μM CHAPS. 10 nM of BRD4 FL & 300 nM of Biotinylated Acetyl histone H4 (Lys 5, 8, 12, 16) (Millipore, USA) was incubated at room temperature for 30 minutes, the reaction was initiated by adding the pre-incubated enzyme ligand mixture to the test compounds. After 30 min incubation, the reaction was stopped by the addition of stop mix containing 1 nM of Europium Streptavidin cryptate (Cisbio, USA) and 5 nM of Mab ANTI 6HIS-XL665 (Cisbio, USA) dilutes in assay buffer containing 2.4M Potassium Fluoride. Fluorescence emission of the samples at 665 and 615 nm were measured at an excitation of 340 nm and their ratio was plotted against the compound concentrations to generate dose-response curve. The percent inhibition of the test compounds is calculated using the ratio of enzyme activity controls.
Selected compounds of the present invention were screened in the above-mentioned assay procedures and IC50 values were determined by fitting the dose-response data to sigmoidal curve fitting equation using Graph pad prism software V7.

**Q.** Cc1cc2c(N3CCN(C)c4cc(-c5cnn(C)c5)c(C#N)cc43)cc(OCC3CCCN(C)C3)cc2n(C)c1=O (single isomer, unassigned) [Example 247, 4-(1,3-Dimethyl-7-((1-methylpiperidin-3-yl)methoxy)-2-oxo-1,2-dihydroquinolin-5-yl)-1-methyl-7-(1-methyl-1H-pyrazol-4-yl)-1,2,3,4-tetrahydroquinoxaline-6-carbonitrile] was tested. Which pIC50 did it give?
**A.** Its pIC50 is greater than 5.70.

**Q.** CCS(=O)(=O)N1CCN(c2cccc3c2cc(C)c(=O)n3C)c2ccc(-c3cnn(C)c3)cc21 [Example 74, 5-(4-(Ethylsulfonyl)-6-(1-methyl-1H-pyrazol-4-yl)-3,4-dihydroquinoxalin-1(2H)-yl)-1,3-dimethylquinolin-2(1H)-one] was tested. Which pIC50 did it give?
**A.** The pIC50 was less than 5.30.

**Q.** With CC(=O)N1CCN(CCOc2cc(N3CCN(C)c4cc(-c5cnn(C)c5)c(C#N)cc43)c3cc(C)c(=O)n(C)c3c2)CC1 [Example 61, 4-(7-(2-(4-Acetylpiperazin-1-yl)ethoxy)-1,3-dimethyl-2-oxo-1,2-dihydroquinolin-5-yl)-1-methyl-7-(1-methyl-1H-pyrazol-4-yl)-1,2,3,4-tetrahydroquinoxaline-6-carbonitrile] as the molecule, how does the pIC50 read?
**A.** Its pIC50 is greater than 5.70.

**Q.** Cc1cc2c(N3CCCc4cc(-c5cnn(C)c5)c(C(F)F)cc43)nc(N3CC(O)C(O)C3)cc2n(C)c1=O (stereo not shown) [Example 213] was tested. Which pIC50 did it give?
**A.** The pIC50 was greater than 5.70.

**Q.** How did the pIC50 turn out when Cc1cc2c(N3CCN(C)c4cc(-c5cnn(C)c5)c(C#N)cc43)cccc2n(C)c1=O [Example 42] was run?
**A.** The pIC50 was greater than 5.70.

**Q.** How did the pIC50 turn out when COC(=O)c1cc2c(cc1-c1cnn(C)c1)N(C)CCN2c1cc(OC)cc2c1cc(C)c(=O)n2C [Example 34] was run?
**A.** Its pIC50 is greater than 5.70.

**Q.** How did the pIC50 turn out when Cc1cc2c(N3CCCc4cc(-c5cnn(C)c5)c(C(F)F)cc43)nc(C3CCOCC3)cc2n(C)c1=O [Example 242, 5-(7-(Difluoromethyl)-6-(1-methyl-1H-pyrazol-4-yl)-3,4-dihydroquinolin-1(2H)-yl)-1,3-dimethyl-7-(tetrahydro-2H-pyran-4-yl)-1,6-naphthyridin-2(1H)-one] was run?
**A.** Its pIC50 is greater than 5.70.

**Q.** COc1cc2c(cc1-c1cnn(C)c1)CCCN2c1nc(C2CCOCC2)cc2c1cc(C)c(=O)n2C [Example 238] was tested. Which pIC50 did it give?
**A.** The pIC50 was greater than 5.70.

**Q.** Cc1cc2c(N3CCN(C)c4cc(-c5ccsc5)ncc43)cc(N3CCOCC3)cc2n(C)c1=O [Example 140] was tested. Which pIC50 did it give?
**A.** Its pIC50 is greater than 5.70.

**Q.** How did the pIC50 turn out when CC(=O)N(C)c1cc2c(cc1C(F)F)N(c1nc(N3CC[C@H](O)C3)cc3c1cc(C)c(=O)n3C)CCC2 [Example 229] was run?
**A.** Its pIC50 is less than 5.30.

**Q.** COc1cc(N2CCNc3cc(-c4cnn(C)c4)c(C#N)cc32)c2cc(C)c(=O)n(C)c2c1 [Example 62, 4-(7-methoxy-1,3-dimethyl-2-oxo-1,2-dihydroquinolin-5-yl)-7-(1-methyl-1H-pyrazol-4-yl)-1,2,3,4-tetrahydroquinoxaline-6-carbonitrile] was tested. Which pIC50 did it give?
**A.** Its pIC50 is greater than 5.70.

**Q.** How did the pIC50 turn out when COc1cc(N2CCN(C)c3ccc(S(=O)(=O)N(C)C)cc32)c2cc(C)c(=O)n(C)c2c1 [Example 93, 4-(7-Methoxy-1,3-dimethyl-2-oxo-1,2-dihydroquinolin-5-yl)-N,N,1-trimethyl-1,2,3,4-tetrahydroquinoxaline-6-sulfonamide] was run?
**A.** The pIC50 was greater than 5.70.

**Q.** With CNC(=O)C1CCN(c2cc3c(cc(C)c(=O)n3C)c(N3CCCc4cc(-c5cnn(C)c5)c(C(F)F)cc43)n2)C1 (stereo not shown) [Example 201, 1-(5-(7-(Difluoromethyl)-6-(1-methyl-1H-pyrazol-4-yl)-3,4-dihydroquinolin-1(2H)-yl)-1,3-dimethyl-2-oxo-1,2-dihydro-1,6-naphthyridin-7-yl)-N-methylpyrrolidine-3-carboxamide] as the molecule, how does the pIC50 read?
**A.** Its pIC50 is greater than 5.70.

**Q.** With COc1cc(N2CCN(C)c3cc(C4CC4)c(S(=O)(=O)NC(C)=O)cc32)c2cc(C)c(=O)n(C)c2c1 [Example 109] as the molecule, how does the pIC50 read?
**A.** The pIC50 was less than 5.30.

**Q.** How did the pIC50 turn out when Cc1cc2c(N3CCN(C)c4cc(-c5cnn(C)c5)c(C#N)cc43)cc(OCCO)cc2n(C)c1=O [Example 60, 4-(7-(2-Hydroxyethoxy)-1,3-dimethyl-2-oxo-1,2-dihydroquinolin-5-yl)-1-methyl-7-(1-methyl-1H-pyrazol-4-yl)-1,2,3,4-tetrahydroquinoxaline-6-carbonitrile] was run?
**A.** The pIC50 was greater than 5.70.

**Q.** How did the pIC50 turn out when CNC(=O)c1ccc(-c2cc3c(cc2C#N)N(c2cc(OC)cc4c2cc(C)c(=O)n4C)CCN3C)cn1 [Example 11] was run?
**A.** Its pIC50 is greater than 5.70.

— patent US20230322724A1, “HETEROCYCLIC COMPOUNDS AS CBP/EP300 BROMODOMAIN INHIBITORS” (AURIGENE ONCOLOGY LIMITED, priority 2020, published 2023)
